± gives the standard deviation of the averaged measurements. Over roughly 33,000 sequences, “E-score (dimensionless, -0.5 to 0.5)” has its median near -0.049; the highest 2% begin near 0.37. The list shows a part of the results.
These sequences were tested on T1, PmTbr T-box DNA-binding domain (GST fusion) (assay: PBM E-score of 8-mer (E-score (dimensionless, -0.5 to 0.5)); Tbr is Tbrain of the sea star Patiria miniata (Pm) or the sea urchin Strongylocentrotus purpuratus (Sp); higher = stronger binding preference; most listed sequences are background and not binding sites). Details: the construct has about 5 more residues each side.
T1 sequence: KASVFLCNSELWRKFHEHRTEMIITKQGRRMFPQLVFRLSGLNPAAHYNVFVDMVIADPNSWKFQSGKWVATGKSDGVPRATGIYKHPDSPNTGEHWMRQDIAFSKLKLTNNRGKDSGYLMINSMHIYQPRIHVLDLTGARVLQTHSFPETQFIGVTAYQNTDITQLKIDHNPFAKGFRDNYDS
Summary of the method: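 GST-fused Tbr T-box DNA-binding domains (the whole T-box plus about five flanking residues) were expressed in BL21 E. coli at 20 °C and purified by glutathione affinity chromatography. Universal Agilent oligonucleotide arrays were made double-stranded by primer extension, incubated with 200 nM protein in PBS (pH 7.5), then scanned and quantified. Every ungapped 8-mer was scored from probe intensities. The Universal PBM Analysis Suite gave each word an enrichment E-score, averaged over duplicate arrays.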

| Sequence | PBM E-score of 8-mer |
| --- | --- |
| CCAAGGCC | -0.19 ± 0.025 |
| GCGAATCA | 0.176 ± 0.023 |
| CCCCTGGA | -0.186 ± 0.013 |
| CAATAAAG | -0.0979 ± 0.06 |
| ACGCGCAT | 0.0257 ± 0.033 |
| CACGAACA | 0.0282 ± 0.043 |
| CGCCGGGA | -0.0656 ± 0.061 |
| GCGCTCCC | -0.133 ± 0.028 |
| CATGTATA | -0.0384 ± 0.0011 |
| ATGTTTGA | 0.102 ± 0.0089 |
| TCCTGGCA | 0.0369 ± 0.053 |
| ATAACGTA | -0.0536 ± 0.021 |
| ATGCTGTG | 0.0432 ± 0.073 |
| CAGATCGC | 0.216 ± 0.043 |
| ATATCCCC | -0.0933 ± 0.088 |
| GGGTCACC | 0.00244 ± 0.035 |
| AGCGGGAG | 0.0556 ± 0.073 |
| AGGGCTAC | -0.0845 ± 0.093 |
| AGCAGCTC | -0.168 ± 0.034 |
| ATGGGTCC | -0.314 ± 0.039 |
| CTTGGTCA | -0.146 ± 0.035 |
| GCACGCTA | 0.11 ± 0.054 |
| GCGGAAGA | 0.0252 ± 0.071 |
| CGCTCATC | -0.212 ± 0.037 |
| ATTAGGTG | 0.374 ± 0.0089 |

| Sequence | PBM E-score of 8-mer |
| --- | --- |
| ACAGCTAA | 0.119 ± 0.017 |
| ACCTGGTA | 0.122 ± 0.036 |
| GAACAAGC | -0.134 ± 0.045 |
| ATCATTAG | -0.253 ± 0.028 |
| GAAAAGCC | -0.0639 ± 0.09 |
| ATCATACA | -0.0972 ± 0.048 |
| TATGGGCA | -0.144 ± 0.0034 |
| CGCGTGTC | 0.24 ± 0.041 |
| TGTTTAAA | -0.221 ± 0.076 |
| GCGGCCCC | -0.0979 ± 0.012 |
| AGGTCAGG | -0.109 ± 0.022 |
| ATCTGGAC | -0.0994 ± 0.061 |
| ATTTTAGC | 0.291 ± 0.035 |
| GGATTTCA | -0.104 ± 0.038 |
| GGTATTCA | -0.1642 ± 0.0013 |
| CACCTGTC | 0.4274 ± 0.0023 |
| AGCACTCC | 0.0238 ± 0.034 |
| ACAGGGCA | -0.0494 ± 0.027 |
| GTCTTATA | -0.0862 ± 0.057 |
| CAGATAAG | -0.113 ± 0.0039 |
| GCGCTGCA | 0.0344 ± 0.022 |
| GTCCCGCA | -0.0582 ± 0.07 |
| CTGGAACA | -0.0692 ± 0.018 |
| CCCGCTGC | -0.0271 ± 0.056 |
| CGCGCTGC | 0.163 ± 0.024 |

| Sequence | PBM E-score of 8-mer |
| --- | --- |
| AGTCACTC | 0.0567 ± 0.037 |
| AGTTGATA | 0.135 ± 0.072 |
| GACTCACA | 0.277 ± 0.055 |
| CTGAACAG | -0.00301 ± 0.016 |
| CTCGATCA | 0.0196 ± 0.0013 |
| ACGCGAAA | 0.133 ± 0.039 |
| ATCTAGTC | -0.203 ± 0.026 |
| AGCTAAAC | -0.183 ± 0.016 |
| CGTCCTCC | -0.316 ± 0.021 |
| CGTTATGA | 0.015 ± 0.021 |
| AAAACTGT | 0.107 ± 0.11 |
| AAACTTAC | 0.0511 ± 0.054 |
| AGAGTCGA | -0.0112 ± 0.044 |
| CTGACGAA | 0.0955 ± 0.048 |
| GCACTGCA | -0.101 ± 0.0072 |
| GACGCTAA | 0.174 ± 0.044 |
| ATGGGATC | -0.177 ± 0.02 |
| CCCCACCA | -0.104 ± 0.066 |
| ACGGTCCC | -0.134 ± 0.016 |
| AGCAAACC | -0.134 ± 0.014 |
| CGGTCACG | 0.138 ± 0.054 |
| GCCGGCTA | -0.0619 ± 0.027 |
| AACTCGGT | -0.129 ± 0.011 |
| AATGAAAT | -0.113 ± 0.065 |
| GCTCTACC | 0.0252 ± 0.074 |

| Sequence | PBM E-score of 8-mer |
| --- | --- |
| AAAAAGAA | -0.231 ± 0.12 |
| AGTATCCC | -0.0929 ± 0.077 |
| AACATTGT | 0.104 ± 0.049 |
| TCTCTGAA | -0.13 ± 0.039 |
| AATTACGG | -0.271 ± 0.01 |
| ATAGAATC | -0.0962 ± 0.04 |
| ACATGATG | 0.178 ± 0.017 |
| GTTTTTAA | -0.131 ± 0.14 |
| AACCCATA | 0.117 ± 0.051 |
| ACCGTCGG | -0.218 ± 0.057 |
| ATCGCCGG | -0.0499 ± 0.037 |
| GCTCCACC | 0.0538 ± 0.037 |
| ACCCCTCG | 0.0543 ± 0.046 |
| AGCTCAAC | -0.0632 ± 0.1 |
| AGTGACTG | 0.105 ± 0.051 |
| AGTGCTGC | 0.0868 ± 0.0037 |
| CAGTTATC | 0.0106 ± 0.071 |
| AAACTCTA | -0.0768 ± 0.0047 |
| CAGGTTAA | -0.177 ± 0.069 |
| CTATGAGA | -0.223 ± 0.036 |
| AAAATCTA | 0.122 ± 0.046 |
| ATGATGGC | -0.0836 ± 0.076 |
| AGCTACAA | -0.25031 ± 0.00016 |
| ACGAGAGA | -0.1623 ± 0.00055 |
| AAAATAGA | -0.291 ± 0.067 |

| Sequence | PBM E-score of 8-mer |
| --- | --- |
| ATTCAGTC | -0.149 ± 0.033 |
| AAATCACA | 0.362 ± 0.038 |
| AGCGGCCA | -0.0735 ± 0.1 |
| CGATCCCC | -0.0111 ± 0.13 |
| GATGCTAC | -0.0723 ± 0.021 |
| CCCGTGCC | -0.0277 ± 0.0075 |
| GAGACTCC | -0.0191 ± 0.097 |
| CAAAAGTG | 0.316 ± 0.032 |
| CGCTGTCC | -0.197 ± 0.032 |
| AGGAGAGA | -0.019 ± 0.041 |
| GTCAAGTA | 0.182 ± 0.0095 |
| CGAAAGTC | 0.0804 ± 0.023 |
| AAAGAGTG | 0.197 ± 0.068 |
| CACTGCGC | 0.156 ± 0.022 |
| GTCCACTA | -0.192 ± 0.057 |
| AGTAAAAG | -0.142 ± 0.0089 |
| AACCCAGG | -0.176 ± 0.0097 |
| ATTGCGAA | 0.27169 ± 0.00012 |
| AGTCGGTA | 0.0807 ± 0.042 |
| ACTCTACC | -0.191 ± 0.01 |
| TGGAAGAA | -0.213 ± 0.053 |
| ATCATGCC | -0.19 ± 0.004 |
| GGTGGTAA | 0.3413 ± 0.0013 |
| ATAATTAG | -0.077 ± 0.0093 |
| ACCATGTG | 0.202 ± 0.018 |

| Sequence | PBM E-score of 8-mer |
| --- | --- |
| TCCCATCA | -0.0906 ± 0.0075 |
| AAAGCGTC | 0.169 ± 0.02 |
| GCGTGGAA | 0.131 ± 0.019 |
| GTACAAAC | -0.141 ± 0.13 |
| TATGGTAA | -0.2 ± 0.011 |
| GGCATGTA | -0.298 ± 0.027 |
| CATCCACC | -0.0688 ± 0.032 |
| GTAAGAAA | 0.0389 ± 0.083 |
| CCAGACCG | -0.2614 ± 0.0022 |
| AACGAGTC | -0.154 ± 0.018 |
| AGCATTGG | -0.13 ± 0.022 |
| AGCCTCGC | -0.0403 ± 0.096 |
| CATAACCA | -0.0323 ± 0.065 |
| GTGAGTCA | 0.224 ± 0.084 |
| ATTAGTGA | 0.105 ± 0.05 |
| AGCCCGGC | -0.0286 ± 0.0078 |
| AAAGTACT | -0.126 ± 0.067 |
| CCCACAGC | -0.0631 ± 0.061 |
| GCGGAATA | -0.00213 ± 0.0067 |
| GCATGAAC | 0.042 ± 0.029 |
| CGGCGTTC | -0.052 ± 0.049 |
| CCTAGTAG | -0.0647 ± 0.067 |
| ATTGATAA | -0.158 ± 0.098 |
| CCCGACGA | -0.044 ± 0.062 |
| CCTGGTAA | 0.098 ± 0.0073 |

| Sequence | PBM E-score of 8-mer |
| --- | --- |
| ACCATCGT | -0.0823 ± 0.0028 |
| CAGATGGG | -0.0596 ± 0.028 |
| CAAGACGG | 0.0261 ± 0.063 |
| ACCGAATA | -0.00183 ± 0.016 |
| GTCCCGGA | -0.189 ± 0.039 |
| CACCATGC | 0.201 ± 0.029 |
| AGCACAAA | -0.145 ± 0.017 |
| GAGTTTTA | -0.0137 ± 0.067 |
| CCCCTTAA | -0.195 ± 0.041 |
| TCTCGGCA | 0.055 ± 0.037 |
| ACACATAA | 0.251 ± 0.0089 |
| GCACGCAC | 0.18 ± 0.093 |
| AACGGGAG | 0.037 ± 0.067 |
| TCACGCGA | 0.357 ± 0.027 |
| TAGACGGA | -0.2 ± 0.012 |
| AAGCTGCT | 0.0723 ± 0.041 |
| GAGCTTTA | -0.196 ± 0.0087 |
| GCGGGACC | -0.0386 ± 0.0097 |
| CCTCGAGA | -0.143 ± 0.026 |
| ACCTCACT | 0.189 ± 0.017 |
| ACACGTAG | 0.206 ± 0.0044 |
| GTGGCTTA | -0.0817 ± 0.015 |

From the supplement of paper PMC4166925
